PubChem BioAssay AID2451 (National Center for Advancing Translational Sciences (NCATS), 2010)
Values joined by “and” are separate entries in the source; they are usually repeats but may differ in a detail not shown here. Equal values may be shown once. Out of some 290,000 compounds screened, about 2,100 (0.72%) were called active. Inconclusive means that the source gave no clear call. Such entries were picked first, then a sample of the others. The call rests on the fitted dose curve; in most records, active means well fitted inhibition curve with a large enough effect; inconclusive means small, poorly fitted or top-dose-only effect, or effect the other way; inactive means flat fitted curve, though single readings scatter. A potency beside an inconclusive call is a rough fit, not a confirmed value.

Biological target: Fructose-bisphosphate aldolase (Giardia intestinalis (strain ATCC 50803 / WB clone C6)) (UniProt A8B2U2)
Chain of UniProt A8B2U2 (A8B2U2 whole entry, looked up): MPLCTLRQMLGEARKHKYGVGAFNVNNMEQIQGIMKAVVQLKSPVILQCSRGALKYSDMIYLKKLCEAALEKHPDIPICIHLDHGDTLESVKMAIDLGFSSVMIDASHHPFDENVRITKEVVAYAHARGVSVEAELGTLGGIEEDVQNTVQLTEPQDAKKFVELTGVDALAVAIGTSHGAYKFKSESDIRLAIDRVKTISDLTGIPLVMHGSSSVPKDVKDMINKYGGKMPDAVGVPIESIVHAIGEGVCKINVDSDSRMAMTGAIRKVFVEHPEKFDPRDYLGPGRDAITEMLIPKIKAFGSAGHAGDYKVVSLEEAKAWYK
Experiment: qHTS Assay for Inhibitors of Fructose-1,6-bisphosphate Aldolase from Giardia Lamblia; further: nearly all actives have a fitted effect of over 55% in size
Conditions: purified Giardia FBPA; activity, negative = inhibition: at 59.6 µM (top of the series) unless noted
Method in brief: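 40 nM FBPA preincubated 10 min at RT with compound (up to 57.5 uM final), then substrate plus GAPDH/TPI/NAD/arsenate coupling and diaphorase/resazurin added. Fluorescence read after 20 min at RT, 525/598 nm.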
On the % scale 0 is the no-effect control and ±100 the full control effect; potency means the concentration at half of the fitted maximal effect; tags describe the fitted curve by direction and shape.

Row | Structure (SMILES) | Potency | activity, negative = inhibition
1 | O=C(C1CCCN(Cc2ccccc2[N+](=O)[O-])C1)N1CCCC1 (configuration not stated) | active: 28.2 µM | –
2 | O=C1CC(N2CCN(C3CC(=O)N(CCc4ccccc4)C3=O)CC2)C(=O)N1CCc1ccccc1 (configuration not stated) | inactive | –
3 | CC(=O)Nc1ccc(S(=O)(=O)N2CCCN(S(=O)(=O)c3ccc(NC(C)=O)cc3)CC2)cc1 | inactive | –
4 | CCC1=Nc2ccccc2NC2=C1C(=O)CCC2 | inconclusive: 2.81 µM [inhibitor, partial curve] | –
5 | Nc1cc(OCC(F)(F)F)cc(OCC(F)(F)F)c1 | inconclusive: 19.9 µM [inhibitor, partial curve] | –
6 | COc1cccc(OC)c1OCc1cc(C2C3CCCC=C3C(C#N)=C(N)C2(C#N)C#N)c(C)cc1C (configuration not stated) | inconclusive: 9.98 µM [inhibitor, partial curve] | –
7 | CSc1ccc(CN2CCc3c([nH]c4ccccc34)C2)cc1 | inconclusive: 39.8 µM [inhibitor, single point] | –
8 | CCCN(CCC)[C@@H]1CCc2c(F)ccc(O)c2C1 | inactive | –
9 | N#Cc1c(N(CCO)CCO)nc(N)c2c(N)nc3c(c12)CC(=O)N3Cc1cccs1 | inconclusive: 5 µM [inhibitor, partial curve] | –
10 | O=C(Nc1cccc(N=Cc2cc(Cl)cc(Br)c2O)c1)c1ccco1 | inconclusive: 4.46 µM [inhibitor, partial curve] | –
11 | CCOC(=O)c1cc(CC)sc1/N=C/c1c(O)[nH]c(=S)[nH]c1=O | inconclusive: 17.7 µM [inhibitor, single point] | –
12 | Cc1cccn2cc(-c3cc4ccccc4oc3=O)nc12 | inactive | –
13 | COc1ccc(CN2CCN(c3ccccc3OC)CC2)c(OC)c1 | inconclusive: 28.2 µM [inhibitor, partial curve] | –
14 | Nc1nnc(SCC(=O)OCC(=O)Nc2ccc(Br)cc2)s1 | inactive | –
15 | CN(NS(=O)(=O)c1ccc(Cl)cc1)c1ncc(C(F)(F)F)cc1Cl | inconclusive: 15.8 µM [inhibitor, partial curve] | –
16 | Cc1cccc(NC(=O)N2CCN(Cc3ccccc3)CC2)c1 | inactive | –
17 | Cc1n[nH]c(=S)n(/N=C/c2cccc([N+](=O)[O-])c2)c1=O | inconclusive: 14.1 µM [inhibitor, partial curve] | –
18 | O=C(NC(=S)NNC(=O)c1ccccc1O)c1ccc(F)cc1 | inconclusive: 28.2 µM [activator, partial curve] | –
19 | COC(=O)CCC(=O)OC1(C)C(=O)C=C2C=C(C3CC3)N(c3ccccc3)C=C2C1=O (configuration not stated) | inconclusive: 141 nM [inhibitor, full curve] and inconclusive: 281 nM [inhibitor, full curve] | –
20 | Nc1cc(C(=O)O)c(N)c2c1C(=O)c1ccccc1C2=O | inconclusive: 17.7 µM [inhibitor, single point] | –
21 | Cc1ccc(NC(=O)CNCC2CCCCC2)cc1S(=O)(=O)N(C)C | inconclusive: 17.7 µM [inhibitor, partial curve] | –
22 | CC1(C)c2ccccc2N2CC(=O)N(CC(N)=O)C21C (configuration not stated) | inconclusive: 44.6 µM [inhibitor, single point] | –
23 | Cc1c2cnn(CC(=O)NCCCN3CCCCC3C)c(=O)c2c(C)n1Cc1ccccc1 (configuration not stated) | inactive | –
24 | CCOC(=O)c1cnc2ccc(OC)cc2c1Nc1ccc2c(c1)OCCO2 | inconclusive: 6.29 µM [inhibitor, full curve, poor fit] | –

Row | Structure (SMILES) | Potency | activity, negative = inhibition
25 | O=[N+]([O-])c1ccc(N2CCCC(C(F)(F)F)C2)c2ccncc12 (configuration not stated) | inconclusive: 22.4 µM [inhibitor, partial curve] | –
26 | O=C(Nc1nc(=O)c2ccccc2s1)c1ccc(Cl)cc1 | inconclusive: 28.2 µM [inhibitor, single point] | –
27 | CCCc1[nH]c(=O)c(C#N)c2c1CCCC2 | inactive | –
28 | O=C1NC(=S)SC1=C1CCCC1 | inconclusive: 19.9 µM [inhibitor, partial curve] | –
29 | Cn1c(=O)c2[nH]c(N/N=C(/C#N)C(N)=O)nc2n(C)c1=O | active: 19.9 µM | –
30 | O=C1CN(C(=O)CNCc2cccc(Cl)c2)c2ccccc2N1 | inconclusive: 17.7 µM [inhibitor, partial curve] | –
31 | Cc1cnc(CNc2ncnc3ccc(-c4ccc(N(C)C)cc4)cc23)cn1 | inconclusive: 19.9 µM [inhibitor, partial curve] | –
32 | COc1ccc(C#CC2C=CC(OC(C)=O)C(COC(C)=O)O2)cc1 (configuration not stated) | – | inactive: -0.65% [at 12.9 µM] and inactive: 0.303% [at 12.9 µM]
33 | Cc1cc(Cl)c(C(=O)Nc2cccc(C(F)(F)F)c2)c(C)n1 | inconclusive: 17.8 µM [inhibitor, partial curve] | –
34 | O=C(Nc1ccc(N2CCOCC2)cc1)c1cc2ccccc2o1 | inconclusive: 17.7 µM [inhibitor, single point] | –
35 | O=C(NC1CC1)c1cc(-c2ccco2)nc2ccccc12 | inconclusive: 17.7 µM [inhibitor, single point] | –
36 | COc1ccccc1Nc1ccc(N)cc1 | inconclusive: 17.7 µM [inhibitor, single point] | –
37 | CN1CCN(/C=C2\SC(=S)NC2=O)CC1 | inconclusive: 11.2 µM [inhibitor, partial curve] | –
38 | CN(C)c1oc(-c2ccccc2[N+](=O)[O-])nc1C#N | inconclusive: 15.8 µM [inhibitor, partial curve] | –
39 | CNc1nc2c3ccccc3n(C(C)=O)c2s1 | inactive | –
40 | O=C1c2ccccc2C(=O)c2c(O)c(O)cc(O)c21 | inconclusive: 17.7 µM [inhibitor, partial curve] | –
41 | COCCN(C(=O)C(F)(F)F)C(C(=O)NC1CCCCC1)c1ccco1 (configuration not stated) | inactive | –
42 | Cc1cc(C)c(C(=O)COc2cccnc2[N+](=O)[O-])cc1C | inconclusive: 28.1 µM [inhibitor, partial curve] | –
43 | O=C(CCCC(=O)n1cnc2ccccc21)n1cnc2ccccc21 | inactive | –
44 | OC1CCCN(CC(O)COC(c2ccc(F)cc2)c2ccc(F)cc2)C1 (configuration not stated) | inconclusive: 15.8 µM [inhibitor, partial curve] | –
45 | Cc1oc(/N=C/c2c(O)ccc3ccccc23)c(C#N)c1C | inconclusive: 15.8 µM [inhibitor, partial curve] | –
46 | O=[N+]([O-])c1ccc(Cl)c(C2Nc3cccc4cccc(c34)N2)c1 | inconclusive: 2.51 µM [inhibitor, full curve, poor fit] | –
47 | Cc1cccc2cc(C#N)c(NCCCNS(=O)(=O)c3ccc(Cl)cc3)nc12 | inactive | –
48 | COc1ccc(C(=O)[C@H]2[C@H]3C(=O)N(c4ccccc4)C(=O)[C@H]3C3C=CC=NN32)cc1 (some centres not stated) | inconclusive: 5 µM [inhibitor, full curve] | –

Row | Structure (SMILES) | Potency | activity, negative = inhibition
49 | S=c1[nH]nc(C2CCCCC2)o1 | inconclusive: 17.7 µM [inhibitor, partial curve] | –
50 | COc1cc2ccc(=O)oc2c(O)c1O | active: 19.9 µM and active: 25.1 µM | –
51 | Oc1ccccc1C1NN=C(c2ccccc2)S1 (configuration not stated) | inconclusive: 31.6 µM [activator, single point] | –
52 | O=C(Nc1ncc(Cc2ccccc2Cl)s1)C1=NCCN1 | inactive | –
53 | C/C(=N\Nc1nc(-c2ccc(C)cc2C)cs1)c1cc2ccccc2oc1=O | inactive | –
54 | O=C1CCCN1CCCNc1ncnc2c1[nH]c1ccc(Cl)cc12 | inactive | –
55 | Cc1ccc(NC(=S)c2nc3ccccc3[nH]2)c(C)c1 | inconclusive: 19.9 µM [activator, partial curve] | –
56 | O=c1cc(O)nc(-c2ccccc2)s1 | inconclusive: 12.6 µM [inhibitor, partial curve] | –
57 | Cc1ccc(C2C(C#N)=C(N)N(c3cccnc3)C3=C2C(=O)CCC3)s1 (configuration not stated) | inconclusive: 15.8 µM [inhibitor, single point] | –
58 | CCc1nnc(NC(=S)Nc2ccccc2)s1 | inconclusive: 3.15 µM [inhibitor, single point] | –
59 | O=C(CNc1ccc2ccccc2c1)N/N=C/c1ccc(C(=O)O)cc1 | inconclusive: 15.8 µM [inhibitor, single point] | –
60 | COC(CN(C)C(=O)c1ccc2c(c1)NC(=O)c1ccccc1S2)OC | inactive | –
61 | CN(C1CCCCC1)S(=O)(=O)c1ccc2c(c1)c(=O)c(C(=O)NCCN1CCCC1)cn2C | inactive | –
62 | O=C(CO/N=C/c1ccccc1)N1c2ccccc2Oc2ccccc21 | inactive | –
63 | Cc1cc2c(ccc3[nH]onc32)n1 | inconclusive: 3.97 µM [inhibitor, full curve] | –
64 | COc1cc2c(C(=O)c3ccccc3)c3c4c(cc(OC)c(OC)c4c2cc1OC)CCN3C | inconclusive: 3.97 µM [inhibitor, full curve] | –
65 | Nc1c2c(nc3ccccc13)N(C1CCCCC1)CC2 | inconclusive: 22.3 µM [inhibitor, partial curve] | –
66 | S=C(NCCCN1CCOCC1)Nc1ccc(-c2nc3ccccc3[nH]2)cc1 | inconclusive: 22.3 µM [inhibitor, single point] | –
67 | O=C1c2ccccc2C(=O)N1/N=C/c1ccc(O)c(O)c1O | active: 7.92 µM | –
68 | Cc1cc(OCC(=O)Nc2cc(-c3nn4c(C)nnc4s3)ccc2C)ccc1Cl | inactive | –
69 | CC(C)C[C@H](NC(=O)c1nc[nH]c1C(=O)NCCCCCNC(=O)OC(C)(C)C)C(=O)OCc1ccccc1 | inconclusive: 15.8 µM [inhibitor, partial curve] | –
70 | COc1cc(/C=C(\C#N)C(=O)Nc2cccc3ncccc23)cc(OC)c1OC | inconclusive: 19.9 µM [inhibitor, single point] | –
71 | Cc1nnc(SCc2cc(=O)[nH]c(=S)[nH]2)s1 | active: 7.92 µM | –
72 | COc1cc(OC)c(N(C)S(=O)(=O)c2cccc(C(=O)Nc3nnc(C4CC4)s3)c2)cc1Cl | inactive | –
